Measurements from paper PMC6919601, “Identification of Plasmodium dipeptidyl aminopeptidase allosteric inhibitors by high throughput screening” (PLoS ONE, 2019).
The campaign covered roughly 110,000 compounds. About 230 (0.21%) showed an effect of 50% or more. This is one part of the list.

Biological target: DPAP1 (Plasmodium falciparum, UniProt Q8IIJ9)
Experiment: primary screen, percent inhibition; read by cleavage of a fluorogenic dipeptide substrate; higher = more effect of the substance
Design: species or system P. falciparum D10 trophozoite lysates; single well
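Note: 30 min substrate incubation versus DMSO and 10 µM JCP410 controls.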

Sequence of DPAP1 (Q8IIJ9 whole entry, looked up): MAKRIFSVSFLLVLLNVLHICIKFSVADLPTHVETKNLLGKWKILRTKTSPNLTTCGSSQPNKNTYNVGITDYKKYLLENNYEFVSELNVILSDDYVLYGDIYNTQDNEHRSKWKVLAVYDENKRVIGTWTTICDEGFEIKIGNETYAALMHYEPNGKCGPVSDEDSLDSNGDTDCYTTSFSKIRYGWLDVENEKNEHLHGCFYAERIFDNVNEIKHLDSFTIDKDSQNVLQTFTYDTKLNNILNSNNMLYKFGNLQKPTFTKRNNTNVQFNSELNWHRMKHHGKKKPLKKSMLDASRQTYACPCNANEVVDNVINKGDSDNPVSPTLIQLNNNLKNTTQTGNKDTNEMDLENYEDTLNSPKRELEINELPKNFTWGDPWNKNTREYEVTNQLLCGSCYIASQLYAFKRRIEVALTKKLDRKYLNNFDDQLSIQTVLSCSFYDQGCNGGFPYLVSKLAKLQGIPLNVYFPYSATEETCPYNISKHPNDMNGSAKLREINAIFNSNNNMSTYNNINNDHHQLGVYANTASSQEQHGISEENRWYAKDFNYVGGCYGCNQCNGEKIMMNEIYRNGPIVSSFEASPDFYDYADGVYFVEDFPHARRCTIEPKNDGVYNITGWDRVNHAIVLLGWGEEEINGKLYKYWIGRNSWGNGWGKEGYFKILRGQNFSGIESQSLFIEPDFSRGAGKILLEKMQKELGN

| SMILES | % Inhibition @ 10 uM [%] |
| --- | --- |
| Fc1ccccc1CCNC1CCN(Cc2ccccc2)CC1 | -0.0908 |
| COCCCNC(=O)CSc1nc2ccsc2c(=O)n1CCCCCC(=O)O | 3.54 |
| O=C(CC1SC(=O)N(Cc2cccc3ccccc23)C1=O)Nc1nccs1 (centres unmarked) | -2.82 |
| N#C/C(=C\c1ccc(Cl)cc1)c1nc(-c2ccc(Cl)cc2)cs1 | -2.51 |
| CC(C)N(C(=O)c1ccc(C(=O)NCc2ccccc2)cc1)C(C)C | -6.17 |
| CC(=O)Nc1nc(C)c(-c2csc(Nc3cccc(O)c3)n2)s1 | 3.65 |
| COC(=O)c1cc(C23CC4CC(CC(C4)C2)C3)oc1CNCc1ccccc1 | -3.75 |
| O=C(NC1CCC(NC(=O)c2cnccn2)CC1)c1cnccn1 (centres unmarked) | 1.28 |
| O=C(C1CC2CCC1C2)N1CCCN(C(=O)C2CC3CCC2C3)CC1 (centres unmarked) | -4.16 |
| COC(=O)c1ccc(-n2nnnc2SCCCC(=O)c2ccc(F)cc2)cc1 | -3.64 |
| Cc1ccc(C(N)=O)cc1S(=O)(=O)N1CCCCC1 | -1.48 |
| Cc1ccc(CNC(=O)CCCn2c(=O)c3sccc3n(CC(=O)c3ccc(F)cc3)c2=O)cc1 | 15.1 |
| COc1ccc(-c2ccc(C(C)=O)s2)cc1 | 0.709 |
| COc1ccc(N2C(=O)Cc3ccccc3C2=O)cc1 | -6.67 |
| COc1ccc(CN2CSC3=C(C#N)C(c4cccs4)CC(=O)N3C2)cc1 (centres unmarked) | 50.8 |
| O=c1[nH]nc(SCc2ccccc2)c(=S)[nH]1 | -0.0267 |
| Cc1cc(O)c(C2=NCCSC(c3ccccc3O)C2)c(=O)o1 (centres unmarked) | 4.54 |
| COCCOC(=O)c1c(C)n(Cc2ccccc2F)c2c1cc(O)c1ccccc12 | 1.76 |
| CCCCCCOc1ccc(CNCCCOCC)cc1 | 5.23 |
| Brc1ccc(OCCN2CCOCC2)cc1 | -11.4 |
| O=C1CCCCCN1CP(=O)(O)CN1CCCCC1 | 0.219 |
| O=C(O)CCP(=O)(O)CN1CCCCC1 | -2.77 |
| Cn1c(CC(=O)c2ccc(F)cc2)nccc1=O | -7.94 |
| CCOC(=O)c1c(C)n(Cc2ccco2)c2cc(-c3ccc(F)cc3)c(O)cc12 | 6.96 |
| O=C(O)c1cccc(NS(=O)(=O)c2cccc(C(=O)Nc3ccccc3)c2)c1 | -0.0217 |
| CC(=O)Nc1ccc(C(=O)Nc2ccc(CC(=O)O)cc2)cc1 | 3.29 |
| O=C(COc1ccc(Cl)cc1Cl)Nc1ccccc1Cl | 4.22 |
| Cc1ccc(CN(CC(=O)NC2CCCC2)S(=O)(=O)c2ccccc2)cc1 | 3.89 |
| Cc1cccc(NS(=O)(=O)c2ccc(F)cc2)c1 | -5.32 |
